# Measured values taken from paper PMC10668032.
# The list shows a part of the results. At the low end of the ranking the order means little.
# Target: SIX1-Q177R homeodomain (UniProt Q15475)
# Test: universal protein binding microarray
# Conditions: Universal all-10-mer PBM (8x60K, AMADID 030236), 300 nM GST-tagged protein, Alexa Fluor 488 anti-GST; buffer, salt, pH and temperature not stated; high values mean tight binding; most listed sequences are background and not binding sites; double strand, one strand shown
row,Sequence,binding signal [E-score]
1,GCAGTTGA,-0.153
2,ATAGACTA,-0.042
3,AAATTGCC,-0.098
4,CAGATGCA,-0.327
5,CCCTTCAG,0.044
6,ACGTGGCT,-0.327
7,AGATGGGA,-0.0871
8,CTCGCACC,0.13
9,CGAATTAA,-0.0591
10,AATTTTCC,0.00396
11,ACGACCAA,-0.00915
12,CCCCGTTC,0.136
13,CTCCCAGC,-0.185
14,ACTAAGGG,0.1
15,GCAAATGC,-0.101
16,GAAACCTC,0.093
17,GGAAGAGA,-0.141
18,GGTAATGA,-0.0681
19,ATAGCCCA,-0.215
20,CAAAAATA,-0.184
21,CCGTGTTA,0.424
22,GCGATCCA,-0.0242
23,CTTTCCAC,-0.107
24,CCAAACTA,-0.0317
25,CTCGTCAC,0.00048

row,Sequence,binding signal [E-score]
1,AATACGTA,-0.0649
2,ATAAGAAA,-0.157
3,CGCCTTCC,-0.0204
4,GCCGAAGA,-0.242
5,AACGACAA,-0.0802
6,ATCCCGCA,0.0334
7,CTTTGGCA,-0.058
8,GCTGAAAA,-0.164
9,GACTTGAC,-0.228
10,ATTCTCTG,-0.375
11,GTGAGAAC,-0.123
12,ATGAATAG,-0.0309
13,AGTATTTG,-0.155
14,GTCGAGAA,-0.162
15,GAGAACAC,0.381
16,CCTCGCGA,-0.0337
17,AACTTCGC,-0.195
18,AATGATTG,-0.171
19,ATCACGCA,-0.0335
20,AACGCCTA,-0.0842
21,TAATTGTA,-0.189
22,ACACCCGA,0.457
23,CCAGCGAG,0.073
24,CTAATGGC,-0.203
25,TGTATACA,0.283

row,Sequence,binding signal [E-score]
1,ATACTGCC,-0.0409
2,CATCTCGC,-0.137
3,CTTAATGA,0.0521
4,CCCTTTGC,0.219
5,CGGCTTTC,-0.108
6,ACAACACA,0.232
7,GCCGCGAC,0.000915
8,CCCAATAA,-0.11
9,TCGCCACA,0.0792
10,AGCGTAAC,-0.126
11,CCCGTAGA,0.112
12,CCCAACAG,-0.0329
13,GGGGGGGA,0.0439
14,ATATTCCG,-0.0282
15,AGGAAAGA,-0.198
16,GAGCGGGA,-0.0624
17,CGTATCGA,-0.00856
18,ACGTGCTC,0.215
19,AAGGGAGG,-0.0551
20,ACCGCCAG,0.125
21,ACGCGAGC,-0.0331
22,GAAAAAGC,-0.257
23,ATGCCTGC,-0.158
24,CAAAGCTG,-0.159
25,ATTAGGAA,-0.0661

row,Sequence,binding signal [E-score]
1,CGGCGGAA,-0.116
2,AGCAAAAA,-0.172
3,ATAATACC,0.0121
4,CGCCTATA,0.00545
5,AATGGATC,-0.0158
6,AATGGTGC,0.126
7,ACGCGAAG,-0.0656
8,ATCAACTC,-0.00642
9,CTTCAAAC,-0.115
10,GTCCTTTA,-0.0967
11,TGGTCCAA,-0.0811
12,CTGGATCA,0.1
13,ATTAATAC,0.0822
14,AAGCGCTG,-0.216
15,AGCAGGTC,-0.293
16,ACGACTGA,-0.121
17,CACGGCCC,0.215
18,GCGCCCCC,-0.0635
19,GAGAATAC,0.194
20,CAAGACTG,-0.108
21,GATCGTGC,0.012
22,GACTCAGC,-0.179
23,GTCCGAAA,-0.218
24,CGCTTTGA,-0.0323
25,ATTCATTC,-0.0622

row,Sequence,binding signal [E-score]
1,TATTACGA,-0.226
2,AGGAGTAA,0.135
3,TACTGGCA,-0.108
4,GATGTCCC,-0.219
5,CTCCGCAA,-0.0125
6,CCTGCCCA,0.0631
7,AGATGATC,-0.0253
8,ACAGCCGA,0.02
9,GGCGGTAC,0.0715
10,GGAGTGTA,0.417
11,CCCATGGA,0.189
12,CGCTTGCA,0.024
13,CATTCACG,-0.153
14,AATAAGCA,0.136
15,GTCTGGTA,0.0736
16,ATGATAAC,-0.136
17,CACGCCGG,0.287
18,AAGGAAAG,-0.361
19,AGCCAATC,-0.125
20,CGAACGAA,-0.143
21,ATTTTTTG,-0.176
22,CACGTAGC,0.0183
23,AGCACCGC,0.288
24,CTCGGGAA,-0.0137
25,AACAGCCT,-0.249

row,Sequence,binding signal [E-score]
1,CATAGCTC,-0.131
2,CGACGCCA,0.0788
3,ATTGCGAC,-0.00343
4,AAGTACCC,0.205
5,CCTACCCC,0.227
6,ATGAATAC,-0.0199
7,CTACCCAC,0.111
8,GTACCAAA,-0.0604
9,GACGCGGA,0.00938
10,CCACAAGC,-0.153
11,GCGACTCA,-0.0999
12,TTATATAA,-0.181
13,CTCACGAC,-0.213
14,CAGACCCA,-0.089
15,AGTCAGGC,-0.174
16,AGAATATG,-0.0948
17,CTGCGCAG,-0.241
18,GATACACA,0.191
19,AAGCGCGT,-0.228
20,AGTTGGTG,0.288
21,ATATACGG,0.0681
22,ATCTCACA,0.119
23,CCCCCATA,0.192
24,GACTCCAC,0.211
25,ATTAAGTG,0.131

row,Sequence,binding signal [E-score]
1,TGCGTCAA,-0.161
2,GATCCTAC,0.104
3,ATAGATAA,-0.159
4,AGGTTTGG,-0.134
5,ACAGGTTC,-0.0948
6,CGTTCGCC,-0.0626
7,CGACAGGC,-0.214
8,CCCCACCG,0.228
9,ATTGCAGA,-0.0125
10,GATACCCC,0.419
11,ATCTAGGC,-0.118
12,GTAATTAC,0.0374
13,ATGCGGGC,-0.118
14,AAGTCGGA,-0.0895
15,ACTCGCTA,0.115
16,AAGAGTAG,-0.0152
17,GCGCCACC,-0.126
18,CTTCATCA,-0.182
19,GAATGAGC,-0.0151
20,CTCGCGAG,-0.0818
21,CGATATCA,-0.166
22,AGCGGCCG,-0.308
23,GCGTCTTA,-0.0916
24,TAAATTCA,-0.277
25,GATGATGA,-0.164

row,Sequence,binding signal [E-score]
1,GACGTCCA,-0.273
2,AATTGGCA,-0.128
3,GCGTCCGA,0.09
4,CCTTTTAA,-0.148
5,AAGTCTGG,-0.0965
6,AGGTCGTC,-0.111
7,CTTCTCAA,-0.219
8,GAAAGCAA,-0.149
9,GCGCTCTA,-0.186
10,CATGCATA,-0.158
11,CCATCCCG,0.119
12,CATGCAAG,-0.0539
13,AGACGCAA,-0.177
14,TGTACTAA,0.0427
15,AAGCACAT,-0.258
16,CGGTCAAG,0.0346
17,ATTCAGTG,0.0364
18,CCTGCTGC,-0.211
19,ACTGACTC,0.0799
20,ATGTCTTG,-0.24
21,AAATAGAG,-0.201
22,AAACCGGA,-0.163
23,CCCCATTC,-0.0246
24,CGCGAAAC,0.0125
25,TAGCGCAA,-0.168

row,Sequence,binding signal [E-score]
1,GAGATGCA,-0.113
2,CAGATCCA,-0.0662
3,CCTATCAG,0.0323
4,CGCTACTC,0.11
5,ATCATAAG,0.185
6,AGAAGTGG,-0.0891
7,CTCGTTGC,0.0145
8,ACAGTCAT,-0.118
9,CCCCGCGG,0.193
10,AATCAGCT,-0.0853
11,ACTATCCT,-0.035
12,GGATAACC,0.0698
13,ATCCTTCA,0.0422
14,ACCTTAGG,0.0181
15,ATCCGGAG,0.216
16,ACCGGATA,0.185
17,CAGAGTCC,0.0042
18,TAGAGTGA,0.0564
19,CATACGTC,-0.238
